The antibiotic and cytotoxicity screens of Wong et al. (2023)
The other results are listed elsewhere or left out.

Key:
[1] = tested on: HSkMC (human skeletal muscle cells); assay: cytotoxicity call (relative viability < 0.9); conditions: 10 µM
[2] = tested on: HepG2; assay: cytotoxicity call (relative viability < 0.9); conditions: 10 µM
[3] = tested on: S. aureus RN4220; assay: growth inhibition call (relative growth <= 0.2); conditions: 50 µM

In the case of `CC(C)NC(=O)N(C)C[C@H]1Oc2ccc(NS(=O)(=O)c3cn(C)cn3)cc2C(=O)N([C@@H](C)CO)C[C@@H]1C`, the cytotoxicity call [1] is reported as “inactive”, the cytotoxicity call [2] is reported as “inactive” and the growth inhibition call [3] is reported as “inactive”.

In the case of `O=C(CN1CCOC1=O)N1CCC2(CCC(=O)N(CCCn3ccnc3)C2)CC1`, the cytotoxicity call [1] is reported as “inactive”, the cytotoxicity call [2] is reported as “inactive” and the growth inhibition call [3] is reported as “inactive”.

For `C[C@H]1CN([C@@H](C)CO)C(=O)c2ccccc2-c2ccccc2CO[C@@H]1CN(C)C(=O)Nc1ccccc1C(F)(F)F`, the cytotoxicity call [1] was “inactive”, the cytotoxicity call [2] was “inactive” and the growth inhibition call [3] was “inactive”.

With `O=C1O[C@@H](c2ccccc2)[C@@H](c2ccccc2)N2[C@@H](c3ccc(O)cc3)[C@]3(C(=O)Nc4ccc(C#CC5=CCCCC5)cc43)[C@@H](C(=O)O)[C@H]12` the cytotoxicity call [1] was “inactive”, the cytotoxicity call [2] was “inactive” and the growth inhibition call [3] was “active”.

In the case of `C[C@H]1CCCCO[C@H](CN(C)S(=O)(=O)c2ccc(F)cc2)[C@@H](C)CN([C@@H](C)CO)C(=O)c2cc(NC(=O)Nc3cccc4ccccc34)ccc2O1`, the cytotoxicity call [1] is reported as “inactive”, the cytotoxicity call [2] is reported as “inactive” and the growth inhibition call [3] is reported as “inactive”.

In the case of `Cc1ccc(S(=O)(=O)N(C)C[C@H]2Oc3ccc(NS(=O)(=O)c4cccs4)cc3CC(=O)N([C@H](C)CO)C[C@@H]2C)cc1`, the cytotoxicity call [1] is reported as “inactive”, the cytotoxicity call [2] is reported as “inactive” and the growth inhibition call [3] is reported as “inactive”.

For `C[C@H]1CN([C@@H](C)CO)C(=O)Cc2cc(NC(=O)Nc3cccc4ccccc34)ccc2O[C@H]1CN(C)C(=O)Nc1ccccc1`, the cytotoxicity call [1] was “inactive”, the cytotoxicity call [2] was “inactive” and the growth inhibition call [3] was “inactive”.

With `O=C(/C=C/c1ccc(O)c(O)c1)O[C@@H]1C[C@](O)(C(=O)O)C[C@@H](OC(=O)/C=C/c2ccc(O)c(O)c2)[C@H]1O` the cytotoxicity call [1] was “inactive”, the cytotoxicity call [2] was “inactive” and the growth inhibition call [3] was “inactive”.

`CC(=O)On1cc(F)c(=O)[nH]c1=O` was tested, and the cytotoxicity call [1] was “inactive”, the cytotoxicity call [2] was “active” and the growth inhibition call [3] was “inactive”.

With `O=C(C[C@@H]1C[C@H]2c3cc(NC(=O)Nc4ccc(C(F)(F)F)cc4)ccc3O[C@H]2[C@H](CO)O1)NCCc1ccccc1` the cytotoxicity call [1] was “active”, the cytotoxicity call [2] was “inactive” and the growth inhibition call [3] was “inactive”.

`Cc1noc(C)c1S(=O)(=O)Nc1ccc2c(c1)C(=O)N([C@@H](C)CO)C[C@@H](C)[C@@H](CN(C)S(C)(=O)=O)O2` was tested, and the cytotoxicity call [1] was “inactive”, the cytotoxicity call [2] was “inactive” and the growth inhibition call [3] was “inactive”.

For `Cc1ccc(S(=O)(=O)N(C)C[C@@H]2OCCCC[C@H](C)Oc3ccc(NC(=O)Cc4ccccc4)cc3C(=O)N([C@H](C)CO)C[C@H]2C)cc1`, the cytotoxicity call [1] was “inactive”, the cytotoxicity call [2] was “inactive” and the growth inhibition call [3] was “inactive”.

With `C[C@H](CO)N1C[C@H](C)[C@H](CN(C)CC2CC2)OCCCC[C@H](C)Oc2ccc(NS(=O)(=O)c3cn(C)cn3)cc2C1=O` the cytotoxicity call [1] was “inactive”, the cytotoxicity call [2] was “inactive” and the growth inhibition call [3] was “inactive”.

For `CC(=O)CCc1ccc(OC(C)=O)cc1`, the cytotoxicity call [1] was “inactive”, the cytotoxicity call [2] was “inactive” and the growth inhibition call [3] was “inactive”.

For `NCCCCCCNC(=O)[C@H]1C[C@H]2C(=O)N[C@@H](CCCCN)C(=O)N2[C@H]1c1ccc(O)cc1`, the cytotoxicity call [1] was “inactive”, the cytotoxicity call [2] was “inactive” and the growth inhibition call [3] was “inactive”.

In the case of `COc1ccc(NC(=O)Nc2ccc3c(c2)C(=O)N([C@H](C)CO)C[C@H](C)[C@@H](CN(C)S(=O)(=O)c2cccs2)OCCCC[C@H](C)O3)cc1`, the cytotoxicity call [1] is reported as “inactive”, the cytotoxicity call [2] is reported as “inactive” and the growth inhibition call [3] is reported as “inactive”.

`COc1cccc(C#Cc2ccc3c(c2)O[C@H](CN(C)C(C)=O)[C@H](C)CN([C@@H](C)CO)S3(=O)=O)c1` was tested, and the cytotoxicity call [1] was “inactive”, the cytotoxicity call [2] was “inactive” and the growth inhibition call [3] was “inactive”.

For `O=c1[nH]cnc2c1ncn2C1CCC(CO)O1` (configuration not stated), the cytotoxicity call [1] was “inactive”, the cytotoxicity call [2] was “inactive” and the growth inhibition call [3] was “inactive”.

For `Cc1ccc(S(=O)(=O)N(C)C[C@@H]2Oc3c(NC(=O)NC(C)C)cccc3C(=O)N([C@H](C)CO)C[C@@H]2C)cc1`, the cytotoxicity call [1] was “inactive”, the cytotoxicity call [2] was “inactive” and the growth inhibition call [3] was “inactive”.

In the case of `C[C@H](CO)N1C[C@H](C)[C@H](CN(C)Cc2ccc(Cl)c(Cl)c2)Oc2ccc(NC(=O)Cn3cnnn3)cc2C1=O`, the cytotoxicity call [1] is reported as “inactive”, the cytotoxicity call [2] is reported as “inactive” and the growth inhibition call [3] is reported as “inactive”.

With `O=C(CN1CCN(S(=O)(=O)c2ccc(F)c(Cl)c2)CC1)N1CCNC1=O` the cytotoxicity call [1] was “inactive”, the cytotoxicity call [2] was “inactive” and the growth inhibition call [3] was “inactive”.

With `COC(=O)N1CCC(CN)CC1` the cytotoxicity call [1] was “inactive”, the cytotoxicity call [2] was “inactive” and the growth inhibition call [3] was “inactive”.

In the case of `C[C@H](CO)N1C[C@H](C)[C@@H](CN(C)S(=O)(=O)c2ccccc2)OCCCC[C@H](C)Oc2ccc(NC(=O)Nc3ccc(C(F)(F)F)cc3)cc2C1=O`, the cytotoxicity call [1] is reported as “inactive”, the cytotoxicity call [2] is reported as “inactive” and the growth inhibition call [3] is reported as “inactive”.

`C[C@@H]1CN([C@@H](C)CO)C(=O)c2cc(NC(=O)C3CCCCC3)ccc2O[C@@H](C)CCCCO[C@@H]1CN(C)S(=O)(=O)c1ccccc1` was tested, and the cytotoxicity call [1] was “inactive”, the cytotoxicity call [2] was “inactive” and the growth inhibition call [3] was “inactive”.

`CN(C)CC(=O)OCC(O)C(O)C(O)C(O)C(=O)[O-].[Na+]` (configuration not stated) was tested, and the cytotoxicity call [1] was “inactive”, the cytotoxicity call [2] was “inactive” and the growth inhibition call [3] was “inactive”.

For `COC(=O)c1c2oc(c1C(=O)OC)C(=O)N[C@@H](Cc1ccccc1)Cn1cc(nn1)[C@@H](Cc1ccccc1)NC(=O)N[C@H](CO)CC2`, the cytotoxicity call [1] was “inactive”, the cytotoxicity call [2] was “inactive” and the growth inhibition call [3] was “inactive”.

For `CCN(CC)/[N+]([O-])=N/OCOC(C)=O`, the cytotoxicity call [1] was “inactive”, the cytotoxicity call [2] was “inactive” and the growth inhibition call [3] was “inactive”.

In the case of `CCS(=O)(=O)N1CC[C@]2(CC1)CN(Cc1ccc3c(c1)OCO3)[C@H](CO)c1c2c2ccc(cc2n1C)OC`, the cytotoxicity call [1] is reported as “inactive”, the cytotoxicity call [2] is reported as “inactive” and the growth inhibition call [3] is reported as “inactive”.

For `Cc1cc(C(=O)Nc2cccc3c2O[C@H](CN(C)Cc2ccncc2)[C@@H](C)CN([C@H](C)CO)C3=O)n(C)n1`, the cytotoxicity call [1] was “inactive”, the cytotoxicity call [2] was “inactive” and the growth inhibition call [3] was “inactive”.
